Growth of 20 clonally related Candida (Clavispora) lusitaniae isolates in two-fold drug steps (micafungin 0.016-8, fluconazole 0.5-256 µg/mL; YPAD, 30 °C, 24 h), OD600 as a fraction of the no-drug well; lower = more inhibition. The paper reads the MIC at the lowest dose that inhibits growth by half or more; no call per well. Isolates are numbered anew; coding changes are against their shared background.
How the values were obtained:
Assay in all cases: growth relative to the no-drug well (fraction of no-drug control); higher = more growth, less inhibition; Broth microdilution in YPAD with 1% dextrose at 30 °C; OD600 at 24 h as a fraction of the no-drug well, three assays.
[1] = tested on: Candida lusitaniae isolate 16 (coding changes: EPL1 D340Y)
[2] = tested on: Candida lusitaniae isolate 4 (coding changes: ERG3 Q308K)
[3] = tested on: Candida lusitaniae isolate 17 (coding changes: none)
[4] = tested on: Candida lusitaniae isolate 14 (coding changes: FKS1 R1352C)
[5] = tested on: Candida lusitaniae isolate 19 (coding changes: none)
[6] = tested on: Candida lusitaniae isolate 11 (coding changes: FKS1 L685F / RLM1 N181K / SIP3 D333E / RPL8B A161V)
[7] = tested on: Candida lusitaniae isolate 5 (coding changes: FKS1 L1355S)
[8] = tested on: Candida lusitaniae isolate 2 (coding changes: none)
[9] = tested on: Candida lusitaniae isolate 12 (coding changes: none)
[10] = tested on: Candida lusitaniae isolate 18 (coding changes: none)

`OC(Cn1cncn1)(Cn1cncn1)c1ccc(F)cc1F` [fluconazole] showed a growth ([1]; 0.5 µg/mL) of 0.0673, a growth ([1]; 1 µg/mL) of 0.0464 and a growth ([1]; 2 µg/mL) of 0.0493. It also gave a growth ([1]; 4 µg/mL) of 0.0501, a growth ([1]; 8 µg/mL) of 0.0399 and a growth ([1]; 16 µg/mL) of 0.0454. The growth ([1]; 32 µg/mL) was 0.0322, the growth ([1]; 64 µg/mL) was 0.0425 and the growth ([1]; 128 µg/mL) was 0.0303. For the same compound, the growth ([1]; 256 µg/mL) was 0.0135, the growth ([2]; 0.5 µg/mL) was 0.629 and the growth ([2]; 1 µg/mL) was 0.535. For the same compound, the growth ([2]; 2 µg/mL) was 0.355, the growth ([2]; 4 µg/mL) was 0.342 and the growth ([2]; 8 µg/mL) was 0.325. For the same compound, the growth ([2]; 16 µg/mL) was 0.27, the growth ([2]; 32 µg/mL) was 0.294 and the growth ([2]; 64 µg/mL) was 0.26. For the same compound, the growth ([2]; 128 µg/mL) was 0.218, the growth ([2]; 256 µg/mL) was 0.132 and the growth ([3]; 0.5 µg/mL) was 0.224. For the same compound, the growth ([3]; 1 µg/mL) was 0.174, the growth ([3]; 2 µg/mL) was 0.142 and the growth ([3]; 4 µg/mL) was 0.12. It also gave a growth ([3]; 8 µg/mL) of 0.106, a growth ([3]; 16 µg/mL) of 0.105 and a growth ([3]; 32 µg/mL) of 0.0864. For the same compound, the growth ([3]; 64 µg/mL) was 0.091, the growth ([3]; 128 µg/mL) was 0.106 and the growth ([3]; 256 µg/mL) was 0.0697. It also gave a growth ([4]; 0.5 µg/mL) of 0.0567, a growth ([4]; 1 µg/mL) of 0.0385 and a growth ([4]; 2 µg/mL) of 0.0379. The growth ([4]; 4 µg/mL) was 0.0346, the growth ([4]; 8 µg/mL) was 0.0271 and the growth ([4]; 16 µg/mL) was 0.0264. For the same compound, the growth ([4]; 32 µg/mL) was 0.0193, the growth ([4]; 64 µg/mL) was 0.014 and the growth ([4]; 128 µg/mL) was 0.0118. For the same compound, the growth ([4]; 256 µg/mL) was 0.0109, the growth ([5]; 0.5 µg/mL) was 0.0547 and the growth ([5]; 1 µg/mL) was 0.0434. The growth ([5]; 2 µg/mL) was 0.0439, the growth ([5]; 4 µg/mL) was 0.0397 and the growth ([5]; 8 µg/mL) was 0.0407. It also gave a growth ([5]; 16 µg/mL) of 0.0405, a growth ([5]; 32 µg/mL) of 0.0296 and a growth ([5]; 64 µg/mL) of 0.0406. The growth ([5]; 128 µg/mL) was 0.0283, the growth ([5]; 256 µg/mL) was 0.00787 and the growth ([6]; 0.5 µg/mL) was 0.0511. It also gave a growth ([6]; 1 µg/mL) of 0.0331, a growth ([6]; 2 µg/mL) of 0.0336 and a growth ([6]; 4 µg/mL) of 0.0301. For the same compound, the growth ([6]; 8 µg/mL) was 0.0277, the growth ([6]; 16 µg/mL) was 0.0252 and the growth ([6]; 32 µg/mL) was 0.0272. The growth ([6]; 64 µg/mL) was 0.0215, the growth ([6]; 128 µg/mL) was 0.0212 and the growth ([6]; 256 µg/mL) was 0.00904. It also gave a growth ([7]; 0.5 µg/mL) of 0.0715, a growth ([7]; 1 µg/mL) of 0.0467 and a growth ([7]; 2 µg/mL) of 0.0411. It also gave a growth ([7]; 4 µg/mL) of 0.0356, a growth ([7]; 8 µg/mL) of 0.0563 and a growth ([7]; 16 µg/mL) of 0.0386. For the same compound, the growth ([7]; 32 µg/mL) was 0.0384, the growth ([7]; 64 µg/mL) was 0.0363 and the growth ([7]; 128 µg/mL) was 0.0287. The growth ([7]; 256 µg/mL) was 0.0117, the growth ([8]; 0.5 µg/mL) was 0.0566 and the growth ([8]; 1 µg/mL) was 0.0428. For the same compound, the growth ([8]; 2 µg/mL) was 0.0438, the growth ([8]; 4 µg/mL) was 0.0436 and the growth ([8]; 8 µg/mL) was 0.0428. The growth ([8]; 16 µg/mL) was 0.0478, the growth ([8]; 32 µg/mL) was 0.0316 and the growth ([8]; 64 µg/mL) was 0.0407. For the same compound, the growth ([8]; 128 µg/mL) was 0.0253, the growth ([8]; 256 µg/mL) was 0.00897 and the growth ([9]; 0.5 µg/mL) was 0.0558. The growth ([9]; 1 µg/mL) was 0.0447, the growth ([9]; 2 µg/mL) was 0.0503 and the growth ([9]; 4 µg/mL) was 0.0441. The growth ([9]; 8 µg/mL) was 0.0456, the growth ([9]; 16 µg/mL) was 0.0476 and the growth ([9]; 32 µg/mL) was 0.0339. The growth ([9]; 64 µg/mL) was 0.0413, the growth ([9]; 128 µg/mL) was 0.0287 and the growth ([9]; 256 µg/mL) was 0.0127. For the same compound, the growth ([10]; 0.5 µg/mL) was 0.134, the growth ([10]; 1 µg/mL) was 0.0728 and the growth ([10]; 2 µg/mL) was 0.0477. The growth ([10]; 4 µg/mL) was 0.0309, the growth ([10]; 8 µg/mL) was 0.0296 and the growth ([10]; 16 µg/mL) was 0.0322. For the same compound, the growth ([10]; 32 µg/mL) was 0.0291, the growth ([10]; 64 µg/mL) was 0.0258 and the growth ([10]; 128 µg/mL) was 0.0233. For the same compound, the growth ([10]; 256 µg/mL) was 0.00923.
`CCCCCOc1ccc(-c2cc(-c3ccc(C(=O)N[C@H]4C[C@@H](O)[C@@H](O)NC(=O)[C@@H]5[C@@H](O)[C@@H](C)CN5C(=O)[C@H]([C@H](O)CC(N)=O)NC(=O)[C@H]([C@H](O)[C@@H](O)c5ccc(O)c(OS(=O)(=O)O)c5)NC(=O)[C@@H]5C[C@@H](O)CN5C(=O)[C@H]([C@@H](C)O)NC4=O)cc3)no2)cc1` [micafungin] showed a growth ([1]; 0.016 µg/mL) of 0.00257, a growth ([1]; 0.031 µg/mL) of 0.0026 and a growth ([1]; 0.063 µg/mL) of 0.00207. It also gave a growth ([1]; 0.125 µg/mL) of 0.0044, a growth ([1]; 0.25 µg/mL) of 0.00182 and a growth ([1]; 0.5 µg/mL) of 0.00617. The growth ([1]; 1 µg/mL) was 0.000747, the growth ([1]; 2 µg/mL) was 0.00233 and the growth ([1]; 4 µg/mL) was 0.00155. It also gave a growth ([1]; 8 µg/mL) of 0.00155, a growth ([2]; 0.016 µg/mL) of 0.842 and a growth ([2]; 0.031 µg/mL) of 0.935. The growth ([2]; 0.063 µg/mL) was 1.03, the growth ([2]; 0.125 µg/mL) was 0.658 and the growth ([2]; 0.25 µg/mL) was 0.106. It also gave a growth ([2]; 0.5 µg/mL) of 0.0251, a growth ([2]; 1 µg/mL) of 0.0102 and a growth ([2]; 2 µg/mL) of 0.00474. The growth ([2]; 4 µg/mL) was 0.00635, the growth ([2]; 8 µg/mL) was 0.00354 and the growth ([3]; 0.016 µg/mL) was 0.00465. For the same compound, the growth ([3]; 0.031 µg/mL) was 0.00569, the growth ([3]; 0.063 µg/mL) was 0.00636 and the growth ([3]; 0.125 µg/mL) was 0.00332. For the same compound, the growth ([3]; 0.25 µg/mL) was 0.00552, the growth ([3]; 0.5 µg/mL) was 0.00045 and the growth ([3]; 1 µg/mL) was 0.00156. The growth ([3]; 2 µg/mL) was 0.00045, the growth ([3]; 4 µg/mL) was 0.000882 and the growth ([3]; 8 µg/mL) was 0.000882. It also gave a growth ([4]; 0.016 µg/mL) of 0.795, a growth ([4]; 0.031 µg/mL) of 0.675 and a growth ([4]; 0.063 µg/mL) of 0.347. It also gave a growth ([4]; 0.125 µg/mL) of 0.114, a growth ([4]; 0.25 µg/mL) of 0.0285 and a growth ([4]; 0.5 µg/mL) of 0.0115. For the same compound, the growth ([4]; 1 µg/mL) was 0.00766, the growth ([4]; 2 µg/mL) was 0.006 and the growth ([4]; 4 µg/mL) was 0.00434. It also gave a growth ([4]; 8 µg/mL) of 0.00438, a growth ([5]; 0.016 µg/mL) of 0.00638 and a growth ([5]; 0.031 µg/mL) of 0.00457. It also gave a growth ([5]; 0.063 µg/mL) of 0.00182, a growth ([5]; 0.125 µg/mL) of 0.00255 and a growth ([5]; 0.25 µg/mL) of 0.00156. The growth ([5]; 0.5 µg/mL) was 0.00353, the growth ([5]; 1 µg/mL) was -0.000833 and the growth ([5]; 2 µg/mL) was 0.00075. It also gave a growth ([5]; 4 µg/mL) of 0.000759, a growth ([5]; 8 µg/mL) of 0.000759 and a growth ([6]; 0.016 µg/mL) of 1.02. It also gave a growth ([6]; 0.031 µg/mL) of 0.867, a growth ([6]; 0.063 µg/mL) of 1.08 and a growth ([6]; 0.125 µg/mL) of 1.01. The growth ([6]; 0.25 µg/mL) was 0.781, the growth ([6]; 0.5 µg/mL) was 0.934 and the growth ([6]; 1 µg/mL) was 0.17. It also gave a growth ([6]; 2 µg/mL) of 0.0899, a growth ([6]; 4 µg/mL) of 0.0621 and a growth ([6]; 8 µg/mL) of 0.0468. For the same compound, the growth ([7]; 0.016 µg/mL) was 0.836, the growth ([7]; 0.031 µg/mL) was 0.407 and the growth ([7]; 0.063 µg/mL) was 0.234. The growth ([7]; 0.125 µg/mL) was 0.0673, the growth ([7]; 0.25 µg/mL) was 0.0116 and the growth ([7]; 0.5 µg/mL) was 0.00962. The growth ([7]; 1 µg/mL) was 0.00774, the growth ([7]; 2 µg/mL) was 0.00536 and the growth ([7]; 4 µg/mL) was 0.00541. The growth ([7]; 8 µg/mL) was 0.00826, the growth ([8]; 0.016 µg/mL) was 0.00392 and the growth ([8]; 0.031 µg/mL) was 0.00313. The growth ([8]; 0.063 µg/mL) was 0.00235, the growth ([8]; 0.125 µg/mL) was 0.00313 and the growth ([8]; 0.25 µg/mL) was 0.00132. The growth ([8]; 0.5 µg/mL) was 0.00597, the growth ([8]; 1 µg/mL) was -1.76e-05 and the growth ([8]; 2 µg/mL) was 0.00183. It also gave a growth ([8]; 4 µg/mL) of 0.0013, a growth ([8]; 8 µg/mL) of 0.0013 and a growth ([9]; 0.016 µg/mL) of 0.00614. The growth ([9]; 0.031 µg/mL) was 0.00477, the growth ([9]; 0.063 µg/mL) was 0.00362 and the growth ([9]; 0.125 µg/mL) was 0.00253. For the same compound, the growth ([9]; 0.25 µg/mL) was 0.00108, the growth ([9]; 0.5 µg/mL) was 0.00512 and the growth ([9]; 1 µg/mL) was -0.00114. It also gave a growth ([9]; 2 µg/mL) of 0.000716, a growth ([9]; 4 µg/mL) of 0.000689 and a growth ([9]; 8 µg/mL) of 0.000689. It also gave a growth ([10]; 0.016 µg/mL) of 0.00305, a growth ([10]; 0.031 µg/mL) of 0.00157 and a growth ([10]; 0.063 µg/mL) of 0.000493. For the same compound, the growth ([10]; 0.125 µg/mL) was 0.00117, the growth ([10]; 0.25 µg/mL) was 0.00212 and the growth ([10]; 0.5 µg/mL) was 0.00169. For the same compound, the growth ([10]; 1 µg/mL) was 0.00102, the growth ([10]; 2 µg/mL) was 0.000617 and the growth ([10]; 4 µg/mL) was 0.00157. It also gave a growth ([10]; 8 µg/mL) of 0.00157.

— the supplement of paper PMC10433866
